Experimental data from PubChem BioAssay AID2147 (National Center for Advancing Translational Sciences (NCATS), 2009).
Screen size: about 230,000 compounds; about 3,600 (1.6%) were called active. Inconclusive results, whose numbers are uncertain, are shown with a selection of clear calls. The call rests on the fitted dose curve; in most records, active means well fitted inhibition curve with a large enough effect (not every such curve was filed as active); inconclusive means small, poorly fitted or top-dose-only effect, or another doubt; inactive means no such curve, though single readings can be large or run the other way. Where the call is inconclusive, the potency comes from a doubtful curve fit.

The compounds below were run against Lysine-specific demethylase 4E (Homo sapiens) (UniProt B2RXH2) (assay: qHTS Assay for Inhibitors of Human Jumonji Domain Containing 2E (JMJD2E)). Conditions: JMJD2E catalytic domain, FDH-coupled NADH fluorescence (FDH is formaldehyde dehydrogenase); series mostly up to 57.1 µM; activity change, negative = inhibition: at the top concentration.
Chain of UniProt B2RXH2 (B2RXH2 whole entry, looked up, the tested form may be a part): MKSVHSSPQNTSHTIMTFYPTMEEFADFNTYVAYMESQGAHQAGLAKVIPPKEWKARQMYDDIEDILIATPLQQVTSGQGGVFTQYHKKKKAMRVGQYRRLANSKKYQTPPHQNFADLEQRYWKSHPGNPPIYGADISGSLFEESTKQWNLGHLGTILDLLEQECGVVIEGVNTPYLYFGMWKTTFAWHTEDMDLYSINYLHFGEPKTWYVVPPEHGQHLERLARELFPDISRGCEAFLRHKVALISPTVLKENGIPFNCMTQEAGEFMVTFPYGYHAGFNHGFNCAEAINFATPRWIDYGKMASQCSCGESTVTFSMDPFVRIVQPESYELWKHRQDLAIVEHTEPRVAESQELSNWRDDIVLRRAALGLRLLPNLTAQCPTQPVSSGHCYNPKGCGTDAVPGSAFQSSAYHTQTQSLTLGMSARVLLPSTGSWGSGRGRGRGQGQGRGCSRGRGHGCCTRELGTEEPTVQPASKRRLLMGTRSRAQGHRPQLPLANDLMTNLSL
Further: nearly all actives have a fitted effect of over 50% in size.
Potency means the concentration at half of the fitted maximal effect; tags describe the fitted curve by direction and shape.
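Wherever activity change, negative = inhibition is given: 0% = wells with enzyme and -100% = buffer wells without enzyme.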

Compound	Potency	activity change, negative = inhibition
O=C(/C=C/c1ccc2c(c1)OCO2)c1ccccn1	inconclusive: 17.8 µM [inhibitor, partial curve]	
NCCC[C@@H](CC(=O)N[C@@H]1CCNC[C@H]1C(=O)N[C@H](CC(=O)N[C@@H](CCC(=O)O)CC(=O)O)Cc1c[nH]c2ccccc12)NC(=O)C[C@H](Cc1c[nH]c2ccccc12)NC(=O)[C@@H]1CNCC[C@H]1N	inconclusive: 39.8 µM [inhibitor, single point]	
CNC(=O)c1sc(-c2cccs2)nc1C	inconclusive: 31.6 µM [inhibitor, partial curve]	
Cc1cc(C(=O)COc2ccccc2C(N)=O)c(C)n1C1CC1		inactive: 2.72%
Cc1ccccc1C(=O)Nc1cccc(NC(=O)c2ccc(-c3ccc(Br)cc3)o2)c1	inconclusive: 25.1 µM [inhibitor, partial curve]	
CSc1ccc(CN2CCN(C(C)C)C(CCO)C2)cc1 (stereo not drawn)		inactive: 6.52%
C=CCn1c(CNc2ccccc2)nnc1SCC(=O)N/N=C/c1ccccc1O	active: 14.1 µM	
Cc1cc(C)c2nc(NC(=O)c3ccc4c(c3)OCO4)sc2c1	inconclusive: 7.08 µM [inhibitor, single point]	
Cc1nc2c(-c3ccccc3)c[nH]n2c(=O)c1Cc1ccccc1	inconclusive: 22.4 µM [inhibitor, partial curve]	
COc1ccc(OC)c(NC(=O)c2c(NC(=O)c3ccco3)sc3c2CCC3)c1	inconclusive: 3.55 µM [inhibitor, partial curve]	
COc1cc2[nH]c3ccccc3c2cc1C	inconclusive: 25.1 µM [inhibitor, partial curve]	
CCN1CCN(C(=O)CS(=O)Cc2nc(-c3ccc(OC)cc3)oc2C)CC1 (stereo not drawn)	inconclusive: 28.2 µM [inhibitor, single point]	
CCCCC/C=C\C\C=C/C=C/C=C/[C@@H](SCC(N)C(=O)O)[C@@H](O)CCCC(=O)O (stereo partly drawn)		inactive: 0.719%
O=C(O)CSCC(=O)Nc1ccc(S(=O)(=O)N2CCCCC2)cc1		inactive: 7.82%
CC(C)(C)NS(=O)(=O)c1cc(C(=O)Nc2sccc2C#N)ccc1Cl	inconclusive: 14.1 µM [inhibitor, partial curve]	
CC(C)n1c(O)c(N=NC(=O)C2COc3ccccc3O2)c2ccccc21 (stereo not drawn)		inactive: 0.824%
CN(C)S(=O)(=O)c1cccc(NC(=O)c2cc3c(=O)n4ccccc4nc3s2)c1	inconclusive: 3.16 µM [inhibitor, partial curve]	
O=c1c2c3nc4ccccc4nc3n(CC3CCCO3)c2ncn1CCc1ccccc1 (stereo not drawn)	inconclusive: 3.55 µM [inhibitor, full curve]	
